Experimental data: PMC4336329 (PLoS ONE, 2015)
Among all 310,000 compounds or so, about 14,000 (4.5%) showed an effect of 50% or more. Effects have a minus sign here. Some of the results follow.

These molecules were tested against human ether-à-go-go-related gene (hERG) potassium channel (human, UniProt Q12809) (assay: primary screen, population patch clamp on CHO cells stably expressing hERG).
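Further: peak tail current of the secondary pulse compared with the same well before compound.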

human ether-à-go-go-related gene (hERG) potassium channel, sequence (Q12809 whole entry, looked up): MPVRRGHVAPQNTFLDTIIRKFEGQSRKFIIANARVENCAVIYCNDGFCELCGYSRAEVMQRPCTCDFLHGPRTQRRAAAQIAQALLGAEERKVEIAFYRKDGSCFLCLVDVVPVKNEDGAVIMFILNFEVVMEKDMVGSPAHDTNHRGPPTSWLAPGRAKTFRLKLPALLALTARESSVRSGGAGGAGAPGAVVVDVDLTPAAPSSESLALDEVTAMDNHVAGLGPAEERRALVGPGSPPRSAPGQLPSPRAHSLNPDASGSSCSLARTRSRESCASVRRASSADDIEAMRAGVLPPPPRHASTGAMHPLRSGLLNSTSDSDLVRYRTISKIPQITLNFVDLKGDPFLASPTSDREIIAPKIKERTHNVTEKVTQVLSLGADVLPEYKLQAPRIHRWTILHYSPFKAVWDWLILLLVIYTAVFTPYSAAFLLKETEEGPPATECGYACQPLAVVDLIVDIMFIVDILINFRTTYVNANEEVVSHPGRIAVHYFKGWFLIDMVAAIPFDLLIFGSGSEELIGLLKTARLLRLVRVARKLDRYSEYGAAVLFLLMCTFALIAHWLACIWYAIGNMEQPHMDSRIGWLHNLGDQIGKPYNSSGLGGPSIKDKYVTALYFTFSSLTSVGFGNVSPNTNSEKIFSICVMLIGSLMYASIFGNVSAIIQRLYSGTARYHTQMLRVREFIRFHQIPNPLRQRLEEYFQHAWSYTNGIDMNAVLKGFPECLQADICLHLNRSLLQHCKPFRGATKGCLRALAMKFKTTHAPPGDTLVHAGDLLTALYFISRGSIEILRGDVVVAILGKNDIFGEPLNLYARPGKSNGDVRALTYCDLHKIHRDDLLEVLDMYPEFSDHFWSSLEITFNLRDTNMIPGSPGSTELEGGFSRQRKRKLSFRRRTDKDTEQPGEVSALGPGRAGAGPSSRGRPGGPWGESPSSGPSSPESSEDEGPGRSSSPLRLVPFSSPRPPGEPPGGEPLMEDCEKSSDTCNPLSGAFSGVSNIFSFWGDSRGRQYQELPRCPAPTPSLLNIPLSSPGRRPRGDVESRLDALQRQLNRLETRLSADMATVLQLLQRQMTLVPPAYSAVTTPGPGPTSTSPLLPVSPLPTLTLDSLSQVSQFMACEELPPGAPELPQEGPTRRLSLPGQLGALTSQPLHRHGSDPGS

SMILES	hERG current change (%, negative = inhibition) at 10uM [%]
COc1ccccc1NC(=O)Cn1c(=O)n(-c2ccccc2)c(=O)c2oc3ccccc3c21	9.59
CC(NC(=O)COc1cccnc1[N+](=O)[O-])c1ccc(Cl)cc1Cl (stereo not drawn)	-16.4
CCc1ccc(/C=N/NC(=O)c2cc(C3CC3)nc3ccccc23)s1	-4.16
CCOc1ncccc1C(=O)OCC(=O)Nc1c(C)cccc1C	4.92
N#Cc1ccccc1Cn1cc(C#N)c2ccccc21	-22.8
CCOc1cc(/C=C(/C#N)C(=O)Nc2ccc(OC)cc2)ccc1OCc1ccc(C(=O)O)cc1	13.1
CCOC(=O)N1CC=C2C(C#N)=C(N)C(C#N)(C#N)[C@H](c3ccc(OCC)c(OCC)c3)[C@H]2C1	2.57
O=C(NNC(=O)c1sccc1-n1cccc1)c1ccccc1	0.14
Cl.O=C(OCCN1CCCCC1)C1(c2ccccc2)CCCC1	4.72
O=C1C(Cl)=C(N2CCN(Cc3ccccc3)CC2)C(=O)N1Cc1ccccc1	-1.82
N#Cc1ccc(COC(=O)CSc2nnc(N)s2)cc1	-3.8
Fc1ccc(N2Cc3ccsc3C=N2)cc1	12.4
Cc1nn(-c2ccccc2)c2sc(C(=O)NNC(=O)COc3cccc4ccccc34)cc12	-2.4
CCOc1ccc(C(=O)OCC(=O)Nc2nc(OC)cc(OC)n2)cc1OCC	11.3
Cl.OC1(C#CCN2CCCC2)CCCCC1	9.16
O=C(NCCCCc1ccccc1)Nc1ccc(F)cc1F	10.7
CCc1ccc(-c2cc3c(=O)n(CC(=O)NCCCN4CCN(C)CC4)ncn3n2)cc1	-4.24
Cc1c(NC(=O)C(C)C)cccc1-c1nc2ncccc2o1	12.9
CCOC(=O)CN(C(=O)c1snc(C(N)=O)c1N)C(C(=O)NCCC(C)C)c1ccc(F)cc1 (stereo not drawn)	-4.75
CCOC(=O)N1CCN(C(=O)CCS(=O)(=O)c2ccc(Br)s2)CC1	1.85
COc1ccc2[nH]c(=O)c(CN(C(C)=O)C3CCCCC3)cc2c1	-12.9
O=C(/C=C/c1c(Cl)cccc1Cl)N1CCN(c2ncccn2)CC1	-72.7
CCOC(=O)c1ccc(NC(=O)c2cc3c(C)nn(-c4ccccc4Cl)c3s2)s1	18.8
COc1ccccc1-c1nc(C#N)c(N2CCN(c3cccc(Cl)c3)CC2)o1	-2.07
